{"source": "PubChem BioAssay AID1468", "about": "(National Center for Advancing Translational Sciences (NCATS), 2008)", "note": "Out of some 280,000 compounds screened, about 1,100 (0.39%) were called active. The shares of active, inactive and inconclusive entries below differ from those in the screen. The call rests on the fitted dose curve; in most records, active means well fitted inhibition curve with a large enough effect; inconclusive means small, poorly fitted or top-dose-only effect, or effect the other way; inactive means flat fitted curve, though single readings scatter. No potency is given beside an inconclusive call; the fits are too rough. Potency means the concentration at half of the fitted maximal effect; tags describe the fitted curve by direction and shape."}
{"target": "Microtubule-associated protein tau (Homo sapiens) (UniProt P10636)", "sequence (P10636 whole entry, looked up)": "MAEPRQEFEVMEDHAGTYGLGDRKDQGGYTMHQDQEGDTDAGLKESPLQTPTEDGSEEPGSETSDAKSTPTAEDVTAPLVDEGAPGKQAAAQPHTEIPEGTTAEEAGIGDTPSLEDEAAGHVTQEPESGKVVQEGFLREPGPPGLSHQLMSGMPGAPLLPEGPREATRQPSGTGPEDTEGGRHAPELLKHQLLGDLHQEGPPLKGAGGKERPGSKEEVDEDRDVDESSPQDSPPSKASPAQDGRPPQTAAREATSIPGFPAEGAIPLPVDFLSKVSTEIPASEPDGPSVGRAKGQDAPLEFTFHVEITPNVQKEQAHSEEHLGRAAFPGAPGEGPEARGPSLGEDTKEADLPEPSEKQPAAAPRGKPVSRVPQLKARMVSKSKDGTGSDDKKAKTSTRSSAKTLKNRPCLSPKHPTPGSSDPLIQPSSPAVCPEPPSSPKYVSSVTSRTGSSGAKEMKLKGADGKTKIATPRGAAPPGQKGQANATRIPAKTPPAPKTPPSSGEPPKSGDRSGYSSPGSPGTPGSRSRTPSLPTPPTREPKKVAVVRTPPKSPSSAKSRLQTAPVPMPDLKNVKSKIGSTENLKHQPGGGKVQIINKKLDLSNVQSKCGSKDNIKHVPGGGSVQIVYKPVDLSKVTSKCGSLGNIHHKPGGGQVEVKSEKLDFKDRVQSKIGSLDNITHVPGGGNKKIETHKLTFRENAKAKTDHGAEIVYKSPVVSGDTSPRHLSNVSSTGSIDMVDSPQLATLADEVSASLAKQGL", "test": "qHTS for Inhibitors of Tau Fibril Formation, Fluorescence Polarization; further: nearly all actives have a fitted effect of over 55% in size", "details": "K18 P301L tau heparin fibrillization, Alexa594 FP, 6 h; series mostly up to 57.7 µM", "summary_of_the_method": "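FP of Alexa 594-tau after heparin (20 uM) induction. Substrate: human K18 P301L, 15 uM unlabeled, 0.24 uM labeled. Buffer 100 mM sodium acetate pH 7. 6 hr, 37 C.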"}
{"smiles": "CC1C(O)CC2C(C(=O)O)=CO[C@@H](O[C@H]3OC(CO)C(O)C(O)C3O)C21", "note": "(stereo partly specified)", "Potency": "inconclusive [inhibitor, single point]"}
{"smiles": "O=C1NCN(c2ccccc2)C12CCN(CCCC(c1ccc(F)cc1)c1ccc(F)cc1)CC2", "Potency": "inconclusive [inhibitor, single point]"}
{"smiles": "O=C(ONc1ccc(N=NC(=O)c2ccccc2O)cc1)c1ccccc1", "Potency": "inactive"}
{"smiles": "O=C(NC(=S)Nc1ccccc1N1CCOCC1)c1ccco1", "Potency": "inactive"}
{"smiles": "C#CCn1c(=NC(=O)c2ccc3c(c2)OCCO3)sc2cc(OC)c(OC)cc21", "Potency": "inconclusive [inhibitor, full curve, poor fit]"}
{"smiles": "Clc1nc(Cl)nc(N(c2ccccc2)c2ccccc2)n1", "Potency": "inactive"}
{"smiles": "O=C(COC(=O)c1cn(-c2ccccc2)nc1-c1cccs1)NC1CC1", "Potency": "inconclusive [inhibitor, single point]"}
{"smiles": "Cn1c2ccccc2c2nnc(SCC(=O)NCc3ccoc3)nc21", "Potency": "inactive"}
{"smiles": "COc1ccccc1C1N(c2cc(Cl)ccc2OC)C(=O)C2CCCN21", "note": "(stereo unspecified)", "Potency": "inactive"}
{"smiles": "CCCCOc1ccc(C(=O)N/N=C/c2cn[nH]c2-c2ccc(OC)c(OC)c2)cc1", "Potency": "inconclusive [inhibitor, single point]"}
{"smiles": "CCOC(=O)c1cccc(NC(=O)Nc2ccc3c(c2)C(=O)OC3)c1", "Potency": "inconclusive [inhibitor, single point]"}
{"smiles": "COC(=O)c1scc(-c2ccc(C)cc2)c1S(=O)(=O)N1CCN(c2ccccc2)CC1", "Potency": "inactive"}
{"smiles": "CCOC(=O)C1=C(C)N(c2ccc(C)c(C)c2)C(=O)/C1=C\\c1ccco1", "Potency": "inconclusive [inhibitor, partial curve, poor fit]"}
{"smiles": "COc1cc(OC)cc(N2C(=O)N(Cc3ccc(C(C)(C)C)cc3)c3ccccc3S2(=O)=O)c1", "Potency": "inconclusive [inhibitor, partial curve]"}
{"smiles": "COc1cc(OC)c(C2CC(=O)N3CN(c4ccccc4C)CSC3=C2C#N)cc1OC", "note": "(stereo unspecified)", "Potency": "active: 31.6 µM"}
{"smiles": "O=C(/C=C/c1cccnc1)/C=C/c1cccnc1", "Potency": "inconclusive [inhibitor, partial curve]"}
{"smiles": "CCOc1cc(C2NC(=O)NC(O)(C(F)(F)F)C2C(=O)c2ccc(OC)cc2)ccc1O", "note": "(stereo unspecified)", "Potency": "inactive"}
{"smiles": "N#Cc1c(N)nc(SCC(=O)NCc2ccc3c(c2)OCO3)c(C#N)c1-c1cccs1", "Potency": "inconclusive [inhibitor, partial curve, poor fit]"}
{"smiles": "Cc1cccc(-c2noc(-c3cccnc3NCc3ccc(Cl)cc3)n2)c1", "Potency": "inconclusive [inhibitor, single point]"}
{"smiles": "C/C=C\\C1=C(CO)C(=O)C2O[C@]2(CC=C(C)C)C1=O", "note": "(stereo partly specified)", "Potency": "inconclusive [inhibitor, single point]"}
{"smiles": "COc1ccc(C(=O)NCC(=O)OCC(=O)N2CCN(S(=O)(=O)c3ccccc3)CC2)cc1", "Potency": "inconclusive [inhibitor, single point]"}
{"smiles": "COc1cccc(NC(=O)NC2CCCc3ccccc32)c1", "note": "(stereo unspecified)", "Potency": "inconclusive [inhibitor, single point]"}
{"smiles": "Cc1ccc(C)c(N(CC(=O)Nc2ccc(-c3nc4ccc(C)cc4s3)cc2)S(C)(=O)=O)c1", "Potency": "inconclusive [inhibitor, partial curve]"}
{"smiles": "COc1cc(CN2CCN(S(=O)(=O)c3ccc(NC(C)=O)cc3)CC2)cc(OC)c1OC", "Potency": "inactive"}
{"smiles": "COC(=O)CNC(=O)c1sc2ncn(CC(=O)Nc3ccc(C)c(Cl)c3)c(=O)c2c1C", "Potency": "inconclusive [inhibitor, partial curve, poor fit]"}
{"smiles": "NC(=O)c1ccc(NC(=O)COC(=O)c2c3c(nc4ccccc24)/C(=C\\c2ccc4c(c2)OCO4)CCC3)cc1", "Potency": "inconclusive [inhibitor, partial curve]"}
{"smiles": "C=CCc1c(C)nc(-c2ccccc2)nc1Nc1ccc(O)cc1", "Potency": "inconclusive [activator, partial curve, poor fit]"}
{"smiles": "O=C(c1cc(F)c(F)cc1Cl)N1CCOCC1", "Potency": "inconclusive [inhibitor, single point]"}
{"smiles": "Cn1c(CNC(=O)Nc2cccc(Cl)c2)nnc1SCc1ccccc1", "Potency": "inconclusive [inhibitor, partial curve, poor fit]"}
{"smiles": "O=C(CSc1nnc(-c2c[nH]c3ccccc23)o1)c1ccccc1", "Potency": "inconclusive [inhibitor, single point]"}
{"smiles": "Clc1ccccc1-c1nnc(COc2ccccc2)o1", "Potency": "inactive"}
{"smiles": "Cc1nonc1OCCN1CCN(c2ccccc2[N+](=O)[O-])CC1", "Potency": "inactive"}
{"smiles": "O=C(CSC1=NCCS1)c1ccc(Cl)cc1", "Potency": "inconclusive [inhibitor, full curve, poor fit]"}
{"smiles": "O=C(Nc1ccc(Br)cc1F)c1cc(S(=O)(=O)NC2CCCCC2)ccc1F", "Potency": "inconclusive [inhibitor, partial curve, poor fit]"}
{"smiles": "CCOC(=O)c1ccc(NC(=O)CSc2nc3cc4ccccc4cc3[nH]2)cc1", "Potency": "inconclusive [inhibitor, full curve]"}
{"smiles": "Cc1nc2nc(NC(=O)c3ccc(C(C)(C)C)cc3)[nH]n2c(=O)c1Cc1ccccc1", "Potency": "inconclusive [inhibitor, single point]"}
{"smiles": "COc1ccc(NC(=O)c2cn(-c3ccccc3)nc2-c2cc3ccccc3o2)cc1", "Potency": "inconclusive [inhibitor, single point]"}
{"smiles": "COc1ccc2c(c1)c(=O)c(S(=O)(=O)c1ccccc1)cn2CC(=O)Nc1ccc(C)c(Cl)c1", "Potency": "inconclusive [inhibitor, partial curve]"}
{"smiles": "S=C(NCCCc1cnc[nH]1)NCCCN(Cc1ccc(Cl)c(Cl)c1)c1ccc(Br)cn1", "Potency": "inconclusive [inhibitor, full curve]"}
{"smiles": "CC(=O)c1ccc(NC(=O)c2cc(C)nc3c2c(C)nn3-c2ccc(C)cc2)cc1", "Potency": "inactive"}
{"smiles": "COc1ccc(-n2cc(C(=O)NCCc3cc(OC)ccc3OC)c3ccccc3c2=O)cc1", "Potency": "inactive"}
{"smiles": "CCOC(=O)c1c(C)[nH]c(C)c1S(=O)(=O)N1CCCC(C(=O)NCc2ccc(N(C)C)cc2)C1", "note": "(stereo unspecified)", "Potency": "inconclusive [inhibitor, full curve, poor fit]"}
{"smiles": "CN(C)c1ccc(/C=C/C(=O)c2c(O)c3ccccc3oc2=O)cc1", "Potency": "inconclusive [activator, full curve]"}
{"smiles": "COc1ccccc1NC(=O)c1c(NCc2ccc(C)o2)sc2c1CCCCC2", "Potency": "inconclusive [inhibitor, single point]"}
{"smiles": "C(=N\\Nc1nc2ccccc2s1)/c1cccs1", "Potency": "inconclusive [activator, single point]"}
{"smiles": "CN1C2CCC1/C(=C\\c1ccccc1)C(=O)/C2=C\\c1ccccc1", "Potency": "inconclusive [inhibitor, single point]"}
{"smiles": "COc1cc(/C=N/NC(=O)C(Cc2c[nH]c3ccccc23)NC(=O)OCc2ccccc2)cc([N+](=O)[O-])c1O", "note": "(stereo unspecified)", "Potency": "inconclusive [activator, single point]"}
{"smiles": "Cc1ccnc(NC(=S)NC(=O)c2cncc(Br)c2)c1", "Potency": "inactive"}
{"smiles": "CCn1c(-c2cc(-c3cc(C)ccc3C)nc3ccccc23)n[nH]c1=S", "Potency": "inactive"}
{"smiles": "Cc1ccsc1C=Nc1ccc(O)cc1", "Potency": "active: 11.2 µM"}
{"smiles": "Cc1ccc(NC(=O)Cn2nc(C(F)(F)F)c3c2CCCC3)cc1C", "Potency": "inconclusive [inhibitor, partial curve, poor fit]"}
{"smiles": "CCOc1ccc2[nH]c(=O)c(C(c3nnnn3Cc3ccco3)N3CCCC(C)C3)cc2c1", "note": "(stereo unspecified)", "Potency": "inconclusive [inhibitor, single point]"}
{"smiles": "CCc1ccccc1NS(=O)(=O)c1ccc2nc(-c3ccccc3)[nH]c2c1", "Potency": "inconclusive [inhibitor, partial curve]"}
{"smiles": "CCSc1nnc(-c2ccc(Cl)cc2)c2ccccc12", "Potency": "inactive"}
{"smiles": "O=C(Cn1c(=O)n(CCc2ccccc2)c(=O)c2cccnc21)Nc1ccc(F)cc1", "Potency": "inconclusive [inhibitor, partial curve, poor fit]"}
{"smiles": "CN(CC(O)CN)CC(O)CN1CCCCC1", "note": "(stereo unspecified)", "Potency": "inactive"}
{"smiles": "CS(=O)(=O)c1ccc(S(=O)CC(=O)Oc2ccc(Cl)cc2)c([N+](=O)[O-])c1", "note": "(stereo unspecified)", "Potency": "inconclusive [inhibitor, partial curve]"}
{"smiles": "CC1CCN(S(=O)(=O)c2ccc(NC(=O)c3cccs3)cc2)CC1", "Potency": "inconclusive [inhibitor, partial curve]"}
{"smiles": "O=c1c2c(nc(NCCO)n1CC1CCCCC1)-c1ccccc1CC21CCCC1", "Potency": "inconclusive [inhibitor, partial curve]"}
{"smiles": "CCN1CCN(Cc2c(O)ccc3c2O/C(=C\\C=C\\c2ccccc2OC)C3=O)CC1", "Potency": "inactive"}
{"smiles": "CC(=O)N1CCCc2cc(S(=O)(=O)N3CCCC(C(=O)NCc4ccccc4Cl)C3)ccc21", "note": "(stereo unspecified)", "Potency": "inconclusive [inhibitor, full curve, poor fit]"}
{"smiles": "COCCNC(=O)c1ccc2c(c1)ncn2-c1ccc(F)c(F)c1", "Potency": "inactive"}
{"smiles": "COc1ccc(C2CC(c3ccc(Cl)cc3Cl)Nc3nc(N)nn32)cc1", "note": "(stereo unspecified)", "Potency": "inactive"}
{"smiles": "COc1cccc(NC(=O)CSc2nc3c([nH]c4ccccc43)c(=O)n2-c2cc(C)cc(C)c2)c1", "Potency": "inconclusive [inhibitor, partial curve, poor fit]"}
{"smiles": "CCCCC#Cc1ccc(C(=O)NNC(=O)Nc2cc(Cl)cc(Cl)c2)o1", "Potency": "inconclusive [inhibitor, partial curve]"}
{"smiles": "CC1CCc2c(cc(-c3ccccc3)n2-c2ccc(C(=O)NC(C)C)cc2)C1", "note": "(stereo unspecified)", "Potency": "active: 11.2 µM"}
